Some of the results follow.
B1: chr7:54825262:54825263:-_ENSG00000132432_ENST00000352861|hu_hu|hu_hu_hu_mus_False|18_58 (ssRNA)
RNA: GGGAGUUCUACAGUCCGACGAUCCUGCCGGCUGGGCUCCACAAACUGCAUUACCUGAUCCAUGUUUGUUGGAUGGCACACCUAAAACGUAGAGACACGUAGCUCAGGAGAGAACCGGAUGGAGGCCAACCGGAAGCUGGCAACCAACAGAGGAUUGAGCAUCA
B2: 68225485_68225605_2997_CDS_ENSG00000072736_ENST00000346183|human|control|control (ssRNA)
RNA: GGGAGUUCUACAGUCCGACGAUCGCUCACAGUUGCCCCAUCAGGUGGAAAUGACGCUGGAUCACACAAACUGUGACAUAUUAAGGAUGAAGGUGCAGAAAGACCCCCCUGGCCCGUACUUUGUGCUUGAGUUGAGUGCUGUCCCAACAGAGGAUUGAGCAUCA
B3: chr3:139075817:139075818:+_ENSG00000175110_ENST00000310776|hu_mus|motif|central (ssRNA)
RNA: GGGAGUUCUACAGUCCGACGAUCUCAGGAUGCUGCGGAAUGACUGGUAACUAUUUCUUGAUAAGUUUGAAGUGCGGAUUCGGUAUAUGCUCCUCUCUGUGCUUCUGUUUUUGCGAAGACCUUAAUUAAGUCGACUCCCUCAGCCAACAGAGGAUUGAGCAUCA
B4: chr11:23509083:23509084:-_ENSMUSG00000042208_ENSMUST00000043356|mus_mus|motif|central (ssRNA)
RNA: GGGAGUUCUACAGUCCGACGAUCUGUGCCCCACAAACGCCAAUAAACAUCUCUCCAAGAUUUUAAUUCUUCAAAAAGACGGUUCAAAUAUUCAUGUACAUCCCAGGUUUUAUCUCUUAUGUGGAUGUAGAUAAUAUUUCCAUGCAACAGAGGAUUGAGCAUCA
B5: 122213812_122213932_1365_3pUTR_ENSG00000188735_ENST00000449592|human|control|control (ssRNA)
RNA: GGGAGUUCUACAGUCCGACGAUCCUCCCUGAGGCUUCAGGCCCCAUCCCCAGGAAGACUGGCCCGGCCUCAGCCACCUUCAAGCACAGGAGUGAGGCCUCGGGUUCCAGGGACGAUGGGGGACCCAGCAUUAAAUAUGUCAUACAACAGAGGAUUGAGCAUCA
B6: chr8:29959424:29959425:+_ENSG00000104660_ENST00000321250|hu_mus|motif|central (ssRNA)
RNA: GGGAGUUCUACAGUCCGACGAUCGAAGGGCACAUCCAAGCAUCAGGAACAUCAGCCCGAUCGCUCCUCCAAAGGACAAACGGAUUAAAGCUUUGAUGCCCGCCAUGGCGGUGACGUCGCUCCUGGCUCCACGACCCGGGCGGUCAACAGAGGAUUGAGCAUCA
B7: 46969061_46972098_759_3pUTR_ENSMUSG00000025041_ENSMUST00000168536|mouse|control|control (ssRNA)
RNA: GGGAGUUCUACAGUCCGACGAUCCUUCAUUCGGCUCAGAAGCAACGGCAACUUGCCAUCCUUGACGACAUACUUCUCAAGAUUUUCAACCGUCUUCUCCUUAAGGGAGCCCUUGUAAUGGACCCAGUCCACUGCGUCUCUUACCAACAGAGGAUUGAGCAUCA
B8: 60567234_60567354_1112_CDS_ENSMUSG00000020097_ENSMUST00000092498|mouse|control|control (ssRNA)
RNA: GGGAGUUCUACAGUCCGACGAUCGGUCACACCUUUCACCCGGAAAUCAAAUGGUUUCUCCAGUGGGUACCCUGCUUUCUCCAUGAAGACAAUGAGGAAGCCCCCCAGACAAGCAUCCACAUGGAGUGGGAUUUUAUAUCUGACCAACAGAGGAUUGAGCAUCA
B9: chr2:48026839:48026840:+_ENSG00000116062_ENST00000540021|hu_hu|hu_hu_hu_mus_False|18_98 (ssRNA)
RNA: GGGAGUUCUACAGUCCGACGAUCAUAGUGAGCCACUAGAGUCCUAAAUCUGGAACAGUGGCGGUCAUCCGAAAACUGGCCGAUGAAAAACUUGCCCAGUGAAGUGUCCACAAAGCACACACCAUAUACACGAGUGUGACCAGACAACAGAGGAUUGAGCAUCA
B10: chr14:59855892:59855893:+_ENSMUSG00000035469_ENSMUST00000043227|mus_hu|FALSE|FALSE (ssRNA)
RNA: GGGAGUUCUACAGUCCGACGAUCUUCCAUUAUUACAUUAGAUGAAAAAAUCAAUUCAAAUAAGAGUUGUCAUAUCCUGCUAUGAUUAACAAAAAAACAAGUAGAAAAAUAAGAGAGUGUAUUUAAAAAAAAUAAUCAAAUGCUCAACAGAGGAUUGAGCAUCA
B11: 63627622_63628296_5786_CDS_ENSMUSG00000028364_ENSMUST00000107372|mouse|control|control (ssRNA)
RNA: GGGAGUUCUACAGUCCGACGAUCGUAGAGGCCAGAGGUAGUAUCACCAUUCAACAUUGCUUGAGAGCAGUCCCUGGGGAAUGGGUACAGGAGUCCAAUUGUUGUGAAGAUGGUUUGGAUCAGCUUGCUCCUCAGGGACCCACUCAACAGAGGAUUGAGCAUCA
B12: chr3:10015032:10015033:+_ENSMUSG00000027533_ENSMUST00000029046|mus_mus|mus_mus_mus_hu_True|38_108 (ssRNA)
RNA: GGGAGUUCUACAGUCCGACGAUCGUUGUUGCCAUCACAAGUGAUGAUACAAUCUGGCUUGGCCAUUGCGCCCAUUUUUCGCAAAGCUAUUCCCACUCCUAGCUCUUUCAUGUAUUCAUCAAAGCCUUUGCUGUCCACCAGGCGCAACAGAGGAUUGAGCAUCA
B13: 18900888_18903581_980_CDS_ENSG00000157106_ENST00000446231|human|control|control (ssRNA)
RNA: GGGAGUUCUACAGUCCGACGAUCCUCCUGAAGCAAUUUGCUACUUUCAUUAAGCACGUCAUGUACAGCAGCCAAGAUAUUAUCCAAUUGUUUAACUAGUACCAGCUUAUUUUCUGGUUGCUGAAUAAAUUCUUUCAACUGCUUCAACAGAGGAUUGAGCAUCA
B14: chr3:176767854:176767855:-_ENSG00000177565_ENST00000430069|hu_hu|hu_hu_hu_mus_False|48_78 (ssRNA)
RNA: GGGAGUUCUACAGUCCGACGAUCGACAUCCUUGUUACUGGGCACGUCCUGCCCUCCUUCUCGUAUACAGUGUCUAAGCACGAGCUGUGUAGAGCCACUCGUGCUGUUCUCACUGAGGUUCCAGAUUCUUGCCGUGGAGUCUCCCAACAGAGGAUUGAGCAUCA
B15: chrX:41002637:41002638:+_ENSG00000124486_ENST00000378308|hu_hu|FALSE|FALSE (ssRNA)
RNA: GGGAGUUCUACAGUCCGACGAUCUGCUGCCCAGAUAUUAUCAAGAUCCUGUAAGGUCAGAGCUUUUUCUUUGAUGACAAAACGAAGAAUCUUCUCUAACUUUUCUACAUACUGUGGCUGAUGAAGACUAUCUCGCAACACUAUCAACAGAGGAUUGAGCAUCA
B16: chr9:35067926:35067927:-_ENSG00000165280_ENST00000358901|hu_hu|motif|central (ssRNA)
RNA: GGGAGUUCUACAGUCCGACGAUCUGGCUGGAUGCUGAUGACAUCCCCUAGGCGUACACGAAGGUUAUUCCGAACAACUCGGUUCAUCCGAAUCUUCUCAUCAGAACAAGUAUCAUCAGAAAGGACGAUGCAAACAGCUUCUCGCAACAGAGGAUUGAGCAUCA
B17: chr7:56127271:56127272:+_ENSG00000146731_ENST00000540286|hu_mus|FALSE|FALSE (ssRNA)
RNA: GGGAGUUCUACAGUCCGACGAUCAUACUCAUAGACAAGCUCUGCAUGUCCCAAACAGUCAGGAUUCAGGUCAUCAAAGGAAUUCAGAGCUAUCCCACCACAAGCAAGUGUCAGCCUCUCCAUGUUUCUCCUCUUGGCUCUGCGCAACAGAGGAUUGAGCAUCA
B18: chr7:141450121:141450122:+_ENSG00000106028_ENST00000265304|hu_mus|hu_hu_hu_mus_True|1_1 (ssRNA)
RNA: GGGAGUUCUACAGUCCGACGAUCUCAUCCGUUCUAUGCCUUUUCUUUUGUCUGGUCACUCAGAAAUAUAAUGUUAUCAGCUAUGAUUGUUGUUGCUUGCCGCCUCACAUUGUUUUUAUCCAUGUACUCGCCAUAGUCUAUUUUCAACAGAGGAUUGAGCAUCA
B19: chr12:39756943:39756944:-_ENSG00000139116_ENST00000544797|hu_mus|hu_hu_hu_mus_False|1_108 (ssRNA)
RNA: GGGAGUUCUACAGUCCGACGAUCGGUUUGGCUAUUACCCCCAAGGGAAUCCUGCAAGAGUCUUGUCAGCUUAGAGUCUCUGUAAGGGACAUGGGUGGCUCUCUUGCUCUUGUCCCCCAAGGCGCUGAUUACAUUCCCAAGUGCCAACAGAGGAUUGAGCAUCA
B20: chrX:140365796:140365797:-_ENSMUSG00000031285_ENSMUST00000033642|mus_mus|mus_mus_mus_hu_False|58_98 (ssRNA)
RNA: GGGAGUUCUACAGUCCGACGAUCCUUCUCAUUACUCAAUGCCUGCAAGGUUCUGGUUCGGUAGAAGCUACAGUGGGCACUAUGAGUGGGGCUAGGCAACCCAUUCAUCCGGGAGCCUCGCAUGUUCCUGGAUGUCUUAUCUCUCAACAGAGGAUUGAGCAUCA
B21: chr1:117910967:117910968:+_ENSG00000198162_ENST00000356554|hu_mus|FALSE|FALSE (ssRNA)
RNA: GGGAGUUCUACAGUCCGACGAUCUUUUGAAGAGUCUGGAAGGAAGAAGAAUGCCCCAAAACACAGGGUGAUGAAGGCACUAAGGAUGAGGAGAAGGAUAAACUUCUCGGAGAGUCUCAAGGUAGCCCUGUGAUGUGGGAAGGACAACAGAGGAUUGAGCAUCA
B22: chr3:41281661:41281662:+_ENSG00000168036_ENST00000349496|hu_hu|FALSE|FALSE (ssRNA)
RNA: GGGAGUUCUACAGUCCGACGAUCCCUGCUUAUUUUAAGCAUAUUAAAAAGGAAACUAAUUGGACCAUUUUCUAUUUGUCUAUUUUAUACAAAAAGGCUACACAAUUGUUACACUUUAUUCAGAUUACAAUUAAUUAGAGUGAUCAACAGAGGAUUGAGCAUCA

What follows are binders tested against T1, UNK ZnF1-3 (human, UniProt Q9C0B0 31-174) (assay: nsRBNS (natural sequence RNA bind-n-seq); RBNS binding buffer (assumed for nsRBNS): 25 mM Tris pH 7.5, 150 mM KCl, 3 mM MgCl2, 0.01% Triton X-100, 500 ug/ml BSA, 20 U/ml SUPERase-In, 4 C; UNK is unkempt and MSI1 is Musashi-1; names of the RNAs are library labels; protein concentration not given here; high values mean tight binding).
T1 sequence: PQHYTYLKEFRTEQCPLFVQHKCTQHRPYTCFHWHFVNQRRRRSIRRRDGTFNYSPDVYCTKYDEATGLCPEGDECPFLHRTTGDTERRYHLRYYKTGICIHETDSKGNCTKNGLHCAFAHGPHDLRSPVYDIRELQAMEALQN

Row | Binder | binding signal [enrichment R]
1 | B1 | 0.774
2 | B2 | 1.39
3 | B3 | 0.717
4 | B4 | 0.688
5 | B5 | 1.08
6 | B6 | 1.33
7 | B7 | 0.598
8 | B8 | 1.22
9 | B9 | 1.24
10 | B10 | 2.92
11 | B11 | 0.887
12 | B12 | 0.76
13 | B13 | 0.641
14 | B14 | 0.384
15 | B15 | 0.737
16 | B16 | 0.969
17 | B17 | 1.77
18 | B18 | 0.364
19 | B19 | 0.672
20 | B20 | 0.593
21 | B21 | 1.54
22 | B22 | 1.19

— publication PMC12136788
